The full ranking holds about 33,000 sequences; the median of “E-score (-0.5 to 0.5)” is about -0.04, and the highest 2% start at about 0.36. Some of the results follow.
target: T1, Hmlalpha2 (UniProt P0CY09); test: PBM E-score (8-mer binding enrichment) (E-score (-0.5 to 0.5)); higher = stronger / more preferred TF binding; most listed sequences are background and not binding sites; conditions: protein concentration: 200 nM; construct: GST-full length
T1 sequence: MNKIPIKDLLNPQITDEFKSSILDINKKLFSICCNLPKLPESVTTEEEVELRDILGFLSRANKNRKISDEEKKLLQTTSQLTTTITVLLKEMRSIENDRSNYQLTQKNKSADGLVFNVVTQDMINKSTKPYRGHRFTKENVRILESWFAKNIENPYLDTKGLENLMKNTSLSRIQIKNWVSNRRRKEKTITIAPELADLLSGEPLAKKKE
Method in brief: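 Universal all-10-mer Agilent arrays, double-stranded by primer extension on fresh or once-stripped slides, were probed with about 100-200 nM GST-tagged yeast transcription factors made by PURExpress. Fluorescent anti-GST detected bound protein, and masliner normalised the scans. E-scores from the Universal PBM Analysis Suite were given to each ungapped eight-base word pooled with its reverse complement.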

Sequence	PBM E-score
GGGGTAAC	-0.0416
AGCGTGGA	-0.239
ATTGCTAG	-0.0101
ACAGGCTC	0.0674
GGAGCTCA	-0.0831
CATCCGAG	-0.207
CGTGTTAA	0.481
GGCACACA	0.147
GCTTTCAA	0.141
CGTGCCAC	-0.0851
CGACAGAA	-0.181
GAGTCTAA	-0.0698
CGGCTACG	0.0372
ACAAAGGG	-0.0246
AGAGAACG	0.0554
ATGTTTAA	0.387
AGAAGTCA	0.0742
CTCCTGCA	-0.0645
AGGCGCGC	-0.169
ATACTGTC	0.0244
AAGGGTTA	-0.0714
ATTTTGCG	-0.0329
CCGTCGAG	0.0641
GCGCCCCC	-0.267
AAATAATT	0.206

Sequence	PBM E-score
AATATTCC	-0.00713
ACCACCGT	-0.0982
AATGAACC	-0.117
ACGGGGGG	-0.22
AGCCTCAC	-0.307
CGGCGCAC	-0.173
CCGAATGA	-0.0941
AGTAAAAA	0.196
GCTCTGTA	0.0723
AGTAGGGA	-0.0827
ATCTCCTC	-0.169
CTACGCTC	-0.00715
CGTTTGAA	0.0215
CGTACGAG	-0.122
GCGTGAAC	0.079
AAGGTGGC	-0.1
CTATGAAG	-0.149
ATGCGCAT	0.357
AATAGTAC	0.0869
CGATGAGC	-0.23
ATCGGGCG	-0.204
CAACAAAG	0.236
CCGCAATA	0.0856
ACCCGGCA	-0.214
GACGCCGC	-0.121

Sequence	PBM E-score
ACAGTACG	0.101
GATACGAA	0.134
ATACGTTC	0.038
CAAATCGA	0.112
GGTGCTTA	-0.0864
ACTCTATC	-0.0301
AATAAGGT	-0.0514
ATGATAAG	0.218
ACAAGCGT	0.235
ATCTAGGA	-0.11
CGGCTCCA	-0.265
ACCAATTC	-0.0945
CAAACAGA	-0.1
ATTCCGCC	-0.176
CATGTTGC	0.334
CCAGTGCG	-0.241
ATCTTTAG	-0.0388
CCGATGAC	-0.0935
AGTCGCGC	-0.155
TATACGCA	0.345
CCACTCGG	-0.126
ACAGCGAT	-0.0205
CGATGACC	-0.101
CGTCCTGC	-0.174
CTGATGCA	-0.0433

Sequence	PBM E-score
ATGAATCC	-0.0534
GCATTCCA	-0.11
ATGGTGAA	-0.0612
AAAACTAA	0.286
CGCGAAAC	-0.00375
AGCGCAGA	-0.145
CGTACGTA	0.15
CGCATCCC	-0.195
CTCATATA	-0.0227
GTTAAGTA	0.318
AATATCGA	0.0197
CGCCGGTA	-0.236
ACGGGCCT	-0.204
CAGCCGAA	-0.0986
CACGGGAG	-0.105
GATCCGGC	-0.293
AAACTATT	0.0334
CAATAGGA	-0.00166
CGAACCCG	-0.299
ACAAACGC	0.16
ACGCCGAA	-0.199
CATCAATA	0.115
ACCGATAT	-0.0792
CGAAACCA	0.0905
AACATTAC	0.332

Sequence	PBM E-score
AACAACAC	0.375
CCATTCGG	0.0669
AAGAGACT	-0.103
AGATATCT	0.0526
CTCGGTAA	-0.0493
TAGTAATA	0.259
AGATGGGC	-0.319
ACTAGGGA	-0.14
ACTACCAT	-0.00403
AAGCTTAT	0.101
CACGAATA	0.195
CAAAGTAC	0.221
AATTAAAC	0.259
AGGCTTAG	8e-05
GCAAGGAA	-0.16
ACCCGTAT	-0.0485
GCGTCTAC	0.0343
AGATTCTA	0.0504
ATACTACG	0.161
CAGCCATC	-0.189
AGCGGGCG	-0.142
CAGGTCGG	-0.211
GCAGGAGA	-0.111
ACCACTTA	0.0802
CTATCCGC	-0.121

Sequence	PBM E-score
CTTATTGA	-0.0347
GACCCAGC	-0.199
TCGCTGAA	0.00606
AACGTGCG	0.152
ATAAGTGG	-0.0805
CGCACCAC	-0.103
CTACTTCA	-0.152
GCGGACTA	0.0231
CGAATTAG	-0.0132
CACCTTCG	-0.206
GGGTATAC	-0.0009
ATGTAGGC	0.169
ATACATTG	0.289
AGGCAACA	-0.136
TCGCACAA	-0.0123
GGGCGGTA	-0.208
AGGCGGAA	0.0848
AAACCAAC	0.141
ATTATAGG	-0.0361
AATTACAC	0.467
ATCGTATA	0.0738
CAAGTGCA	0.104
CAATAAGG	-0.22
AAACCTAT	0.071
TAATCAAA	0.087

Sequence	PBM E-score
GCAATTAC	0.167
ATGGCGGC	-0.199
ACTGACCA	-0.214
CCTCTACG	-0.00282
GCAGATCA	0.0679
ACCAGGAT	-0.0987
CCTCCGGC	-0.257
CTATATGA	0.053
TCCTGACA	0.0397
ACACCAAT	0.127
ATTCCTAG	-0.179
CGGTGTGC	-0.266
ACGGCTTG	-0.13
TAAAAAAA	0.191
ACTGTACA	0.242
GGTTGAGA	-0.039
ACTTCTAC	0.235
TATCTGGA	-0.16
AGCGTGTC	0.317
CACGCCGC	0.0764
CGCCGACA	0.0843
AACGTGAG	0.121

Source: the supplement of paper PMC3334620
